Measurements taken from PubChem BioAssay AID493208 (National Center for Advancing Translational Sciences (NCATS), 2011).
Out of some 44,000 compounds screened, about 340 (0.77%) were called active. About 5% were inconclusive and are not listed. Calls come from the whole dose curve; as a rule, active = well fitted inhibition curve with a large enough effect; inconclusive = small, poorly fitted or top-dose-only effect; inactive = flat fitted curve, though single readings scatter. Some of the results follow.

experiment: Acumen qHTS Assay for Inhibitors of the mTORC1 Signaling Pathway in MEF (Tsc2-/-, p53-/-) Cells: Sytravon; conditions: phospho-rpS6 immunofluorescence/PI, 24 h; series mostly up to 38.3 µM; activity change, negative = inhibition: at the top concentration;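 note: plate controls were DMSO for no effect and rapamycin for full effect; nearly all actives have a fitted effect of over 50% in size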
Method in brief: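 Plate MEFs (Tsc2-/-, p53-/-, empty vector) in DMEM/10% FBS; after 24 h add compound, incubate 24 h at 37 degree Celsius; fix in PFA/TX-100, block, stain phospho-rpS6 and 10 uM PI; scan at 488 nm; report % positive cells.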

Activity change, negative = inhibition, inactive:
Cc1ccc(Cl)cc1N1CCN(C(=O)CCCn2c(=O)[nH]c3ccc(Br)cc3c2=O)CC1 -2.5%
CCc1ccccc1NC(=O)C1CCN(c2cnccn2)CC1 2.71%
CC(=O)c1ccc(Nc2ccc3cc(S(=O)(=O)N4CCCC4)ccc3n2)cc1 -0.0857%
O=C(CCn1cnnn1)Nc1cc(C(F)(F)F)cc(C(F)(F)F)c1 -4.99%
CC(=O)c1nnn(-c2ccc(C)cc2Cl)c1C -1.34%
COc1ccc2c(c1)c1c(c(=O)n(-c3ccc(OC)c(OC)c3)c(=O)n1Cc1ccccc1F)n2C -0.194%
COc1cc(NC(=O)CSc2nccn2C)cc(OC)c1OC 8.76%
CC(C)CCn1nnc2sc(-c3ccccc3)cc2c1=O -0.501%
O=C(NCCS(=O)(=O)N1CCN(c2ccc(F)cc2)CC1)c1cccc(C(F)(F)F)c1 10.1%
CCCCSCCCNC(=O)c1cn(C)c2ccc(S(=O)(=O)N3CCCCCC3)cc2c1=O 9.3%
COc1cc(OC)c(NC(=O)c2nn(-c3ccc(C)cc3)c(=O)c3c2c2ccccc2n3C)cc1Cl 8.53%
O=C(Nc1cccc(C(=O)N2CCN(c3cccc(Cl)c3)CC2)c1)c1nsc2ccccc12 7.34%
O=C(NCc1ccccc1Cl)c1ccc(Cn2c(SCc3ccccc3)nc3cccnc32)cc1 -1.8%
Cc1ccccc1Cn1c2ccccc2c2cnn(CC(=O)NCC(C)c3ccccc3)c(=O)c21 (stereo unspecified) -4.26%
CCc1ccccc1NC(=O)c1ccc2c(SCC(=O)O)c3c(nc2c1)CCC3 -15.9%
CCOc1ccc(C2c3c(oc4ccc(C)cc4c3=O)C(=O)N2CCCN(C)C)cc1 (stereo unspecified) -1.63%
CCOC(=O)C1CCN(C(=O)c2ccc(NC(=O)c3nsc4ccccc34)cc2)CC1 -6.65%
O=C(CCn1ccc2cc(S(=O)(=O)N3CCCC3)ccc21)NCc1cccc(Cl)c1 -3.38%
Cc1cc(C(=O)NCc2cccc(Br)c2)c2c(C)nn(-c3ccccc3)c2n1 1.88%
CC(=O)N1c2ccc(S(=O)(=O)NCC3CCC(C(=O)Nc4ccc(C)c(C)c4)CC3)cc2CC1C (stereo unspecified) -21%
Cc1ccc(NC(=O)c2ccc(CNS(=O)(=O)c3ccc4c(c3)C(C)(C)C(=O)N4C)cc2)cc1C -4.38%
COc1cc(CCNC(=O)c2ccc3c(c2)c(C)c(C)n3Cc2cccc(C)c2)cc(OC)c1OC -9.65%
COc1ccc(OC)c(Nc2ncnc3c2nc2n3CCCC2)c1 -11.8%
COCCCn1c(=N)c(C(=O)NCc2cccnc2)cc2c(=O)n3cc(C)ccc3nc21 1.23%
CCOc1ccc(NC(=O)c2nc3nc(C)cc(C(F)F)n3n2)cc1 -1.04%
Cc1cc(C)c2c(-n3cccc3)c(C(=O)NCc3cccc(F)c3)sc2n1 2.12%
